The record followed here is paper PMC12136788.

T1: UNK ZnF1-3 (human, UniProt Q9C0B0 31-174)
T1 sequence: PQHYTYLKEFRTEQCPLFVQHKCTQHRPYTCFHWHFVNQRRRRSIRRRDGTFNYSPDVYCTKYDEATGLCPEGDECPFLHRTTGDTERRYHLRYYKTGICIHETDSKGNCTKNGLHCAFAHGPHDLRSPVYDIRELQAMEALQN

B1: chr7:17149110:17149111:-_ENSMUSG00000058230_ENSMUST00000075845|mus_hu|motif|central (ssRNA)
RNA: GGGAGUUCUACAGUCCGACGAUCAAUAUCCAUGUAUACAGAUUCCUCCAGCCACUGGUAGAAAUCCUCAUUCAUAAUAAAACGGCGGGCCUCUUCCCAAGGCUUUCCGGGAGUUAUGAAAGGAGAAGUCUCCAGGUUUUCUUUCAACAGAGGAUUGAGCAUCA
B2: chr12:493273:493274:-_ENSG00000073614_ENST00000399788|hu_mus|hu_hu_hu_mus_False|88_108 (ssRNA)
RNA: GGGAGUUCUACAGUCCGACGAUCUUUUCUCUCUACCACAGGGAUCUUCAGAGUAGAUCCUUGAAGUUCCCAAAAUUUUGCCAGUUGAUCCAAGAAGUCCAAUCUUACUCUAGUCAUUGCCUCAAGUUCAUUCAGGCGCUGGACCAACAGAGGAUUGAGCAUCA
B3: chr4:184628046:184628047:+_ENSG00000168538_ENST00000334690|hu_hu|FALSE|FALSE (ssRNA)
RNA: GGGAGUUCUACAGUCCGACGAUCGAGACCUGAGAACAUGAAGGCAUCACUGGGCUCCACAGAAAUUUCUACAUCUUGAACUAAGUCGGUCUUAUUCUGUAGGUGAUACUUGACAGGUAACGACUCUCUGACACGCCCAAAUGACAACAGAGGAUUGAGCAUCA
B4: chr2:216981417:216981418:+_ENSG00000079246_ENST00000392132|hu_hu|hu_hu_hu_mus_True|18_28 (ssRNA)
RNA: GGGAGUUCUACAGUCCGACGAUCCUGAUACUGGUCCUUGCCAGCAAGGGCAUUAUCAGUGCCAUCUGUGCCAUAGAGGACUAACGCAAUCUCAUCUUUGCUCUCCGCAAACACCUGUCGCUGUACAAACAUAGUCAUCACUUUCAACAGAGGAUUGAGCAUCA
B5: chr7:7679991:7679992:-_ENSG00000106399_ENST00000396682|hu_mus|FALSE|FALSE (ssRNA)
RNA: GGGAGUUCUACAGUCCGACGAUCUGGGAUGAAUCUUUUCCAGCUUCCCCACGAAGCACACGGGCCGGUCGAUAUACUGUGGUAACAUGCUGGCGUUGACGCGCGCUUUGGGGAGCUGCAUUAUGUCCUCCAUGAUUCUGCCGCCAACAGAGGAUUGAGCAUCA
B6: chr1:39469031:39469032:+_ENSG00000174574_ENST00000432648|hu_mus|FALSE|FALSE (ssRNA)
RNA: GGGAGUUCUACAGUCCGACGAUCGUAUCGCCGCAUGAUCUGAUCAUGCGUGAAUUUCACAAACGAUUCAUACUGUUCUGCGAGUUUGGUACUGAGGAUUUGCUCAUACUCCUCUCGGACUUUAUCUUCAUAGUCUUUUAAGAGCAACAGAGGAUUGAGCAUCA
B7: chr4:115894766:115894767:+_ENSMUSG00000028698_ENSMUST00000030464|mus_hu|mus_mus_mus_hu_True|48_98 (ssRNA)
RNA: GGGAGUUCUACAGUCCGACGAUCUUCCACACGGAAAGUACUUGGGGGUUUUCCAACGGCCAGUACCAGUCCGGCCAAACUACCCGAUGAGGACAAGCCCCCUCUCUCCUACAGAACACAACAAAAUGCCCCCGAACUUUCAAGCAACAGAGGAUUGAGCAUCA
B8: chr1:60041781:60041782:+_ENSMUSG00000041040_ENSMUST00000036540|mus_hu|mus_mus_mus_hu_False|88_108 (ssRNA)
RNA: GGGAGUUCUACAGUCCGACGAUCAAGAGGAGUGAAUUAAAGUAAAUCAAAUUUAGUCAAAUUUUCUUUUAUUUUCCUUCACAAAAGAAAAUCUUUAUAACCCAGUCCUAGUCUUGGACAUAGUGAAAGCUAUAAAUUCUGACUCAACAGAGGAUUGAGCAUCA
B9: chr2:202488911:202488912:-_ENSG00000155755_ENST00000286196|hu_mus|hu_hu_hu_mus_False|18_108 (ssRNA)
RNA: GGGAGUUCUACAGUCCGACGAUCAUUUAACAUUUUUUCAUAAUCUCCAGUAGCAUUUCAGCAUUAUGUAACAAAAGCUCAAUUGUAAAUACAUGUAUCUUAUAAAAAUACACUUAAAUUUAAAAACGGGGAGCGCAGGCGCCACAACAGAGGAUUGAGCAUCA
B10: chr6:38652254:38652255:-_ENSG00000124767_ENST00000373365|hu_hu|hu_hu_hu_mus_False|8_68 (ssRNA)
RNA: GGGAGUUCUACAGUCCGACGAUCCGAGAACUUCAUAGCAGGGAAGUCAAGCUUCUGCAGGAGGGUCAUUCCAAGAACCCUCGUAUAAAAAUCCAGGGACUUCUUAGGAUCCUUAAUUCUUAGCAUCGUCUGCUGCAGUAGAAACAACAGAGGAUUGAGCAUCA
B11: chr1:244855233:244855234:+_ENSG00000121644_ENST00000302550|hu_mus|hu_hu_hu_mus_True|48_58 (ssRNA)
RNA: GGGAGUUCUACAGUCCGACGAUCCAUCAGAUGGUAGGCGUUGCCCUUAUACUCUUUCCCCAGUUCUUCUACAAUUUUUUCUAUAUCAUCUUCUAGGAAGUCCGUACUUCCUAGAACAACAGCUUCUUUAAAUUUAAAUGUUUCCAACAGAGGAUUGAGCAUCA
B12: chr2:216981417:216981418:+_ENSG00000079246_ENST00000392132|hu_hu|hu_hu_hu_mus_True|38_38 (ssRNA)
RNA: B4 RNA with C100U, C105A, C107A, C111U, C120U, U123G
B13: chr8:21939936:21939937:+_ENSG00000158856_ENST00000443491|hu_hu|FALSE|FALSE (ssRNA)
RNA: GGGAGUUCUACAGUCCGACGAUCCCCCCAGCAUGGUCACACACACAGUGGAAAGGGAUGUCAGGGUCUGGGCAGGAGCAAUACCCAGACCUGGGCAAAAAUAUAGAUAUCAUUAUAUACACACGUGGACUGGAAAGAAGUCAACAACAGAGGAUUGAGCAUCA
B14: chr12:85018817:85018818:+_ENSMUSG00000010608_ENSMUST00000048155|mus_mus|FALSE|FALSE (ssRNA)
RNA: GGGAGUUCUACAGUCCGACGAUCUUCUGCUUCUUCAUCUAGUACCAUGGCAACAUCAUCUAAAAUGCUCUGUGGUGAACUAUGUGCCAUAACCUUAGAGCAAACAAAAUCAACUAAUGUAGCUUCUUCUUCACCUAUGUAUUCCAACAGAGGAUUGAGCAUCA
B15: chr9:100389865:100389866:-_ENSG00000136925_ENST00000341170|hu_hu|FALSE|FALSE (ssRNA)
RNA: GGGAGUUCUACAGUCCGACGAUCACAGUGAAGCAGAUAUUCCUUUCAGUUAAAUACCUCCCGCCAGUCCUGAUCCUUUCUAAGGUCUCUCUUCCCUGCACUGUCUCCGCCUAGCAAUUGUCACUGCUCACCGCCCUCGAGCCUCAACAGAGGAUUGAGCAUCA
B16: chr12:51141157:51141158:+_ENSG00000066084_ENST00000301180|hu_hu|FALSE|FALSE (ssRNA)
RNA: GGGAGUUCUACAGUCCGACGAUCGGACAUGCAAAAGAUCAAUAAAGCAGAAAGCAAAAAAUAAAUUAGAGGCCUGAGGAACUACAAAACUAGAUAAUCAGCCUCUAAGUAAAUGGGAGUUGGCCACACUUUGAGAUUAACAGACAACAGAGGAUUGAGCAUCA
B17: chr5:128440902:128440903:+_ENSG00000066583_ENST00000173527|hu_mus|hu_hu_hu_mus_True|58_88 (ssRNA)
RNA: GGGAGUUCUACAGUCCGACGAUCUUGAACGGUGCUGCCAAGUCCUUUAGGGUAUUGUUCCGUUAUGAUAACUGGAAUUCCUAAAAUCCGAGCUCCUUGCAACAGUCUCUGUCCCACACUAAUGAUGUCCCCAAAGUAUUUGAUCAACAGAGGAUUGAGCAUCA
B18: chr3:176767854:176767855:-_ENSG00000177565_ENST00000430069|hu_hu|hu_hu_hu_mus_False|58_98 (ssRNA)
RNA: GGGAGUUCUACAGUCCGACGAUCGACAUCCUUGUUACUUGGAACAUCCUGCCCUCCUUCCCGUAUGCAGUGUCUAAGUACUAACUGCGUAGGGCCACUCGUGCUGUUCUCACUGAGGUUCCAGAUUCUUGCCGUGGAGUCUCCCAACAGAGGAUUGAGCAUCA
B19: chr4:115894766:115894767:+_ENSMUSG00000028698_ENSMUST00000030464|mus_hu|mus_mus_mus_hu_True|48_68 (ssRNA)
RNA: GGGAGUUCUACAGUCCGACGAUCUUCCACACGGAAAUGUACUUCGGGUUUUCCAACGGCCAGUACCGUCCAGCCAAAACUACCCGAUGAGGACAAGCCCCCUCUCUCCUACAGAACACAACAAAAUGCCCCCGAACUUUCAAGCAACAGAGGAUUGAGCAUCA
B20: 129744135_129744255_509_CDS_ENSMUSG00000001052_ENSMUST00000001079|mouse|control|control (ssRNA)
RNA: GGGAGUUCUACAGUCCGACGAUCAGGACCUCUGCCAUACAUCUGCUGUGCUCCUGGUUGGUUUGCUGAGCUGGGAGUCCCCGAAUUUUGUGUUGGUACUGUAUAUGGACGAGAGUAGUAACUAUCACACUGGCUAUCCAAUGGCAACAGAGGAUUGAGCAUCA
B21: chr17:56552419:56552420:-_ENSMUSG00000013236_ENSMUST00000086828|mus_mus|mus_mus_mus_hu_False|1_28 (ssRNA)
RNA: GGGAGUUCUACAGUCCGACGAUCAAAAAAUACACUAUUUAAAAAAAAUGAAAUGUCACGGGAUACAGUUACACUGAGAGUUUUAAAAGAAAGCUGGAUUCUGGUCCUUGCCAAAAGUCCCCAGGCUGCAGAGCGGGGCAGAGGCAACAGAGGAUUGAGCAUCA
B22: chr16:11201500:11201501:-_ENSMUSG00000005846_ENSMUST00000119953|perfect_dup|motif|central (ssRNA)
RNA: GGGAGUUCUACAGUCCGACGAUCGUUGAAUUGGGUUCAUCCUUCGUAAAUAAACAGAUAUCUUCUGAAUCUGAUCGAAUACGGUGAGGCAAGGUCCUGUUCUUUAUCCAGCUGCUUCCGUGCUGUCGGGGCCGCUGGAGUCGACAACAGAGGAUUGAGCAUCA

Residue numbers refer to the chain shown, from its start. This is one part of the list.

This test addresses T1, UNK ZnF1-3. Kind of test: nsRBNS (natural sequence RNA bind-n-seq); RBNS binding buffer (assumed for nsRBNS): 25 mM Tris pH 7.5, 150 mM KCl, 3 mM MgCl2, 0.01% Triton X-100, 500 ug/ml BSA, 20 U/ml SUPERase-In, 4 C; UNK is unkempt and MSI1 is Musashi-1; names of the RNAs are library labels; protein concentration not given here; high values mean tight binding.
With B1, the binding signal stood at 0.87 enrichment R.

B2 showed a binding signal of 0.99 enrichment R.

The molecule B3 registered a binding signal of 1.13 enrichment R.

In turn, B4 had a binding signal of 0.811 enrichment R.

For the molecule B5, the binding signal was 0.477 enrichment R.

Consider B6, for which the binding signal turned out to be 0.53 enrichment R.

In turn, B7 displayed a binding signal of 0.956 enrichment R.

In the case of B8, the binding signal amounted to 0.656 enrichment R.

Regarding B9, the binding signal turned out to be 2 enrichment R.

In the case of B10, the binding signal stood at 0.692 enrichment R.

The molecule B11 returned a binding signal of 1.32 enrichment R.

For B12, the binding signal came out at 0.612 enrichment R.

B13 registered a binding signal of 2.23 enrichment R.

As for B14, the binding signal came out at 1.2 enrichment R.

The molecule B15 displayed a binding signal of 0.915 enrichment R.

B16 had a binding signal of 1.34 enrichment R.

B17 displayed a binding signal of 0.955 enrichment R.

In the case of B18, the binding signal turned out to be 0.734 enrichment R.

B19 had a binding signal of 1.19 enrichment R.

Consider B20, for which the binding signal turned out to be 0.992 enrichment R.

Take B21: the binding signal is 3.13 enrichment R.

The molecule B22 registered a binding signal of 0.351 enrichment R.
